The source of these data is the BET-seq Pho4 binding data (Le et al. 2018).

This is one part of the list. Values were computed here from the reads of four pooled replicates and scatter widely.

The experiment concerns the target T1, Pho4 (S. cerevisiae) (UniProt P07270).
T1 sequence: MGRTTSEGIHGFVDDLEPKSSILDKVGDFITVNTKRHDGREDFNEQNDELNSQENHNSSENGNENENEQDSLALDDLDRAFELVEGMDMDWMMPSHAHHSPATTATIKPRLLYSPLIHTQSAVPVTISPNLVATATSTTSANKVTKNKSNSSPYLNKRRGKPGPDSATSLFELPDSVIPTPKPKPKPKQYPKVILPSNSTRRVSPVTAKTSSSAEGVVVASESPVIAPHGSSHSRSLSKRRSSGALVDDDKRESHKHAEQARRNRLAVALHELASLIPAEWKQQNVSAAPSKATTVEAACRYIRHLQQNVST
In words: relative binding free energy (BET-seq); higher = weaker binding. The note with it: reference: library average.
Regarding CTAATCACGTGTGGGG, the “relative binding free energy” value is 0.17 kcal/mol. Next, GTGGGCACGTGCAAGG: -0.1 kcal/mol; GGCGTCACGTGTCGTA: 0.24 kcal/mol.

In the case of TTATTCACGTGTTGCG, the “relative binding free energy” value was determined as 0.34 kcal/mol. Consider ATGCGCACGTGAGCGG, for which the “relative binding free energy” value is 0.03 kcal/mol. Turning to GTCGGCACGTGCGTTG, the “relative binding free energy” value is -0.04 kcal/mol. For the sequence GAGTGCACGTGTGGTG, the “relative binding free energy” value came to 0.06 kcal/mol. Take AGTCTCACGTGGGTGA: the “relative binding free energy” value stood at 0.12 kcal/mol. In the case of CGGAGCACGTGGTATG, the “relative binding free energy” value is -0.18 kcal/mol. In the case of CGGGACACGTGTTGAT, the “relative binding free energy” value was found to be 0.1 kcal/mol. Next, AAGGCCACGTGCGGGG: -0.2 kcal/mol; GGGGTCACGTGTGGGC: 0.29 kcal/mol.

Regarding ATTGTCACGTGATAGG, the “relative binding free energy” value was 0.29 kcal/mol. TGACCCACGTGGGGGG: the “relative binding free energy” value was -0.3 kcal/mol. Next, TGTATCACGTGGGCGA: -0.01 kcal/mol; CTCTACACGTGAGGTG: 0.41 kcal/mol; TGATGCACGTGATAAT: 0 kcal/mol.

For GTGCACACGTGTGGCT, the “relative binding free energy” value was found to be 0.22 kcal/mol.

On to TTATGCACGTGTTAAA, for which the “relative binding free energy” value was -0.05 kcal/mol. Next, TTGAACACGTGGTAGT: -0.03 kcal/mol; GGGAACACGTGCAGGG: 0.01 kcal/mol; GCTGGCACGTGGTTGA: -0.16 kcal/mol.

Turning to CCAGGCACGTGTGGGA, the “relative binding free energy” value is -0.09 kcal/mol. For the sequence TATGTCACGTGGGCCT, the “relative binding free energy” value was -0.12 kcal/mol. Next, TTTAACACGTGGTGAT: -0.03 kcal/mol; TTTGTCACGTGGCAAT: 0.03 kcal/mol. Next, TCTGGCACGTGACTGT: -0.09 kcal/mol. Take GGAGGCACGTGGAGAC: the “relative binding free energy” value turned out to be 0.01 kcal/mol.

Take GTTTGCACGTGCTGAG: the “relative binding free energy” value was -0.19 kcal/mol. For AAGGGCACGTGGTGAG, the “relative binding free energy” value was -0.18 kcal/mol. Next, GGAAACACGTGTGGAT: 0.12 kcal/mol.

Regarding TTGTGCACGTGAATAG, the “relative binding free energy” value was determined as 0.22 kcal/mol. With GTTTGCACGTGGAATT, the “relative binding free energy” value is 0.12 kcal/mol. Next, AGGGGCACGTGGAGGA: -0.08 kcal/mol. For TTGCTCACGTGTTGGG, the “relative binding free energy” value was 0.18 kcal/mol. As for ACTGGCACGTGCTGTT, the figure is -0.12 kcal/mol. Next, ATTTCCACGTGGTTAG: 0.02 kcal/mol; AATGGCACGTGTTCAT: 0.03 kcal/mol; CATGTCACGTGTGGCT: 0.02 kcal/mol. As to AATTTCACGTGGGCTT, the “relative binding free energy” value came out at 0.24 kcal/mol. In the case of GGGTGCACGTGGTACT, the “relative binding free energy” value is -0.02 kcal/mol. As for TGATACACGTGGGGAG, the figure is 0 kcal/mol.

For TTCGACACGTGTCGTG, the “relative binding free energy” value was found to be 0.03 kcal/mol. As to GTCAACACGTGTGGTT, the “relative binding free energy” value came out at 0.09 kcal/mol. As for CAAGTCACGTGGTTGA, the figure is 0.18 kcal/mol; as for GATTGCACGTGAAGTT, 0.35 kcal/mol; as for TGTATCACGTGTGTGA, 0.12 kcal/mol. With TTGGGCACGTGGGCGC, the “relative binding free energy” value is -0.15 kcal/mol. As for GGTGGCACGTGAAGGC, the figure is 0.22 kcal/mol; as for TTTAGCACGTGGCCGT, -0.24 kcal/mol; as for CGGTTCACGTGTTAGC, 0.23 kcal/mol.

For GTGCGCACGTGTGGAT, the “relative binding free energy” value was -0.01 kcal/mol.

Turning to GATTACACGTGGGAAG, the “relative binding free energy” value was 0.17 kcal/mol.

Take ATGTGCACGTGGTGCC: the “relative binding free energy” value is -0.22 kcal/mol. As for AATTACACGTGTTGTC, the “relative binding free energy” value came to 0.2 kcal/mol. As to ATTATCACGTGAATTA, the “relative binding free energy” value turned out to be 0.24 kcal/mol. As for GAGGTCACGTGTTGAT, the “relative binding free energy” value was 0.24 kcal/mol.

On to TAATTCACGTGGGGTG, for which the “relative binding free energy” value worked out at 0.05 kcal/mol. In the case of CTTCGCACGTGGGGAG, the “relative binding free energy” value is -0.18 kcal/mol. For AGGTTCACGTGATGTG, the “relative binding free energy” value is 0.3 kcal/mol. Next, CGTTGCACGTGGTTTT: -0.02 kcal/mol. Next, TTTTTCACGTGTATAA: 0.18 kcal/mol. For the sequence AAATTCACGTGGGTTT, the “relative binding free energy” value came out at 0.02 kcal/mol.

Regarding GAAGACACGTGTTTGT, the “relative binding free energy” value was -0.05 kcal/mol. As to ATATGCACGTGTGTCG, the “relative binding free energy” value is -0.1 kcal/mol. As for GTTCGCACGTGGCAGT, the figure is 0.05 kcal/mol; as for AGGGACACGTGGAAGT, 0.1 kcal/mol; as for GGGGTCACGTGAGTAA, 0.3 kcal/mol. Regarding GGATGCACGTGTGAAT, the “relative binding free energy” value was 0.21 kcal/mol. Regarding GGTTTCACGTGCTTCG, the “relative binding free energy” value was 0.44 kcal/mol. Next, AGAGTCACGTGTGGAA: 0.25 kcal/mol.

In the case of GTTACCACGTGGGGTT, the “relative binding free energy” value was -0.23 kcal/mol. As for GAAAGCACGTGGGCGT, the figure is -0.08 kcal/mol.
